Drawing on the RNAGym collection of RNA variant scans (doi:10.7554/elife.90254), this text covers self-cleavage for 167 variants.

Read counts are not given, so values of variants with three or more changes are uncertain.

B1: LINE1-mini (parent)
chain: GGCAGAGCUCAACACAGCGUGGCAAAGUGGCUGUGGCUAGACUGCC

The variants in the series derive from B1. The series can be described thus: self-cleavage, relative activity (ratio to wild type); higher = more cleavage; in vitro, sequencing; the parent is a self-cleaving ribozyme.
G1C C8A G22A: the self-cleavage was determined as 0.04.

As for C3U A4G C15G A24G U43G, the self-cleavage turned out to be 0.1.

For A6C G7C G44C, the self-cleavage amounted to 0.08. As to U9G C23A C42U, the self-cleavage was 0.06. With G2C C18A G21C G29U C31A G35C C37U, the self-cleavage is 0.01. For the variant G36C A39C C45A, the self-cleavage is 0.04.

Consider U9A C10A G17A G29C G36U, for which the self-cleavage came to 0.02. With A4G G21A G29A C31A, the self-cleavage is 0.64.

Consider C13U C37A C42A C45G, for which the self-cleavage is 0.2.

As to G29U G35A C46U, the self-cleavage worked out at 0.1. On to G7A U9C C10A C13A U34A, for which the self-cleavage worked out at 0.08.

C18U A25C U38A C46G: the self-cleavage was 0.13.

As for G5A C42G C45U C46U, the self-cleavage is 0.05. A16U G19U U20C G30C A41G: the self-cleavage was determined as 0.1. As to C18U G22A G35A, the self-cleavage is 0.07. On to C13A A41C C46U, for which the self-cleavage turned out to be 0.03. Take C23A G27U G33A: the self-cleavage was 0.18. As for G7U A26C G36C C37U, the self-cleavage was determined as 0.01. Turning to A16U G35A U43A, the self-cleavage came to 0. For the variant A6G G19U G21C, the self-cleavage was determined as 0.01. Take C3A A4U G19A G36C C45A: the self-cleavage was 0.14. Then G1U G7A A12G A16C C18A A24U C37A, with 0.06; and G21A G29U G40A, with 0.13. As for G1U U20A U28G G36C, the self-cleavage was determined as 0.03. Turning to U20G G21U A25G, the self-cleavage was found to be 0.24. Regarding A11G C13A C45A C46U, the self-cleavage was 0.02. Turning to A4U A6G A11U A39C, the self-cleavage worked out at 0.03. C3A A4G A25C A26C: the self-cleavage turned out to be 0.12. For G7A A12C C13A G19U G22C A26U U34G the value was 0.02. For the variant A14C G19U G36A U43G, the self-cleavage came to 0.03. As for A24U G40C C45U, the self-cleavage amounted to 0.24. With G17C A24C G36C, the self-cleavage amounted to 0.04. Consider A11C C15U C31A, for which the self-cleavage worked out at 0.01. For the variant G5U A39G A41G, the self-cleavage is 0.03. Then A24C C42U C46A, with 0.01. As for G1U G5A G29A C31A G40A, the self-cleavage turned out to be 0.01.

In the case of C3G A24U G29U G40A, the self-cleavage came out at 0.1. Regarding G21C C31G C42G, the self-cleavage amounted to 0.05. With G29A A41U C45G, the self-cleavage stood at 0.35. A26C G30A G40U: the self-cleavage came to 0.04. With A12U A14G G27A U28C, the self-cleavage is 0.11. Turning to U34G C37G C46U, the self-cleavage worked out at 0.01. For the variant G1U C10A U28A C37A U43A, the self-cleavage turned out to be 0.01. Consider C8G G44A C46G, for which the self-cleavage was found to be 0. As to A11U G19U A41U, the self-cleavage worked out at 0.02.

As for C8U G33U G35U, the self-cleavage came to 0.12. In the case of A4C A12C A14C U43C C45A, the self-cleavage was 0.01. Consider U20G C42U G44U, for which the self-cleavage was 0.17. As to A4G C8G G29A, the self-cleavage came out at 0.04. As to A24G U28A C42U, the self-cleavage came to 0.11. In the case of G2A U9C G30U, the self-cleavage stood at 0.03.

G5U G7A G29U: the self-cleavage came out at 0.08.

As to A4U C18A G33U C42U, the self-cleavage is 0.

C10U G17A C18A G29U G33C: the self-cleavage was 0.03. As for G40C A41G G44A, the self-cleavage came out at 0.03.

For the variant A4G C10U U20G A25G C45A, the self-cleavage came to 0.04. In the case of G2C G27U G33C C37A, the self-cleavage came out at 0.02. As for U9C A24G C31G, the self-cleavage turned out to be 0.02. Turning to A6U C10G A11U, the self-cleavage was found to be 0.05. Turning to A6G U9C C10U C13G G22U G27U G29U, the self-cleavage came to 0.01.

As to G5U A39U A41U, the self-cleavage worked out at 0.11. For the variant G22U G36C C45A, the self-cleavage is 0.18. For G19A A24G U28G C42U the value was 0.1. For C15U G30A G33C A39G the value was 0.09; for U9G G17U A26U, 0.01; for U20C G27C C37U, 0.03. A11G G19C C42A: the self-cleavage is 0.01. With C15A A25G C37A, the self-cleavage was found to be 0.18. Turning to C8U C18A A39C, the self-cleavage came out at 0.22. For G19A C23A G33A, the self-cleavage came to 0.2. Then G2U A25G G29A, with 0.02. As to C3A G21U U32A, the self-cleavage was 0.06. Then G1U G19A G33U U38C, with 0.01; and G5A G30A G36U C42G, with 0. Take A6G U28A G44U C46U: the self-cleavage came out at 0.07. Then A4G C13U G19C A39U, with 0.05; and A14U G17A G21U U28A, with 0.04. For the variant A4C A11G G29U U34C, the self-cleavage is 0.05. In the case of G21C C37G C42G, the self-cleavage stood at 0.02. Then U9C C13U G30C G33C U34G, with 0.01. Then U28A U34G U38G U43A, with 0.06; and G2U A16G A25C A39C, with 0.01. Consider C3G A4U G44U, for which the self-cleavage was found to be 0.12. As for C15A C18U A26G U28G G33C, the self-cleavage came out at 0.01. Consider G27U U28G G35U C37G G40A, for which the self-cleavage amounted to 0.01. For G5C A12U G22C C31A the value was 0.02; for A4U C13G C18U U28C, 0.1; for C10A A12U C42U, 0.03. For the variant G30A C37A A39C, the self-cleavage stood at 0.48. For A6G G35A G36C U38A the value was 0.04; for G5C C13A A39C, 0.03; for C8G G21U G29U, 0.05. A12C G17A G19U G33U U43A: the self-cleavage was 0.01. On to A4G G5A G29A, for which the self-cleavage came to 1.59.

With A14U A25C A26C G36C, the self-cleavage stood at 0.15. Turning to G1U G5U C18G, the self-cleavage is 0.01. On to G5U G21U U32G C42A, for which the self-cleavage is 0.05. For A14U A24U G29U the value was 0.28; for G5C A14C C23A, 0.02.

In the case of G2U A12U A25U U38C, the self-cleavage is 0.

For A12U C23A G30A, the self-cleavage was 0.32. For G27U C37G C45A the value was 0.02; for U32C G33U U43A, 0.06; for G7U G19U G29A G36C, 0.04. On to C10A G19A C37U G40C, for which the self-cleavage came to 0. For the variant A4U C10A G17A G29U G33U C37A, the self-cleavage was 0.02. As for G1U A6G A11U C23U A25C, the self-cleavage worked out at 0. C13U A16U C23G: the self-cleavage worked out at 0.23. For G1C U9G A14C the value was 0.02; for G1A C3A A14U, 1.62. On to C8A A41G C45A, for which the self-cleavage stood at 0.27.

On to A6U G7C A39U, for which the self-cleavage came to 0.28. Regarding G2U C3U U20A, the self-cleavage was 0.18.

As to A6U G7A U32C, the self-cleavage was found to be 0.03. In the case of C3U A6G G7U U28A, the self-cleavage came out at 0.05.

On to G1U A6G A11C, for which the self-cleavage came to 0.03. On to G1U C31G C45G, for which the self-cleavage came to 0.04. Take G1U A16G G36A C46G: the self-cleavage came out at 0.02. As for A4U G17C G22U, the self-cleavage is 0.18. With U9C G17C C45G, the self-cleavage is 0.02.

For the variant U9C G17C C46A, the self-cleavage was determined as 0.01. For the variant G1C G5U G30A, the self-cleavage amounted to 0.02.

For the variant A6G C10A A12U G27A, the self-cleavage amounted to 0.01. With G7C C13G G19A, the self-cleavage was found to be 0.08. Consider G5U G29U C37A C45U, for which the self-cleavage is 0.02.

In the case of C3U G29A C31U G40U, the self-cleavage was 0.01.

As for C10U A16C G40C, the self-cleavage was 0.06.

For G5A G21U A39C, the self-cleavage was found to be 0.07. For G1A C10G A12C the value was 0.05. Turning to C3U G5A U34C G36A, the self-cleavage amounted to 0.08. Then C10G A11C G30U G40U, with 0.01; and A11U A16U G21C, with 0.05; and C10U A12U A16U, with 0.06. Consider C13A A14G C18U G21U, for which the self-cleavage stood at 0.04. On to G1U C8U G22U U32A G44C, for which the self-cleavage was determined as 0.04. In the case of G1U G19A C46A, the self-cleavage was determined as 0.6. As for G17A C18U A26C, the self-cleavage came out at 0.01.

With C8A A26G G33U C37U, the self-cleavage came out at 0.16. Take G2A A4G G17A A26C U34G: the self-cleavage stood at 0.11. Then C15G G17A G36U, with 0.02.

With G7U C15U G35U G36A, the self-cleavage is 0.03. With G7U G22U A25U, the self-cleavage amounted to 0.13. In the case of U9A G21A G36C C46G, the self-cleavage came out at 0.07. C3A C23U U28C: the self-cleavage was determined as 0.26. A4U A6U A11C G19A C42A: the self-cleavage came out at 0.04. Regarding G5C G17A G21A C45G, the self-cleavage was found to be 0.01. For U28C G40U U43G the value was 0. Then U9G A16G G22A U34C U38C, with 0.04; and G1A C8G G17C, with 0.03; and C10U G29U C31A, with 0.08.

Turning to A6G U32G G36A, the self-cleavage amounted to 0.18. Then G7A C10G G17U G27A G30C, with 0.02. Take A6C C10U G21C C37U: the self-cleavage amounted to 0.02. For C15A G19A G21C C31G G35U U38C the value was 0.02. Take A16U A24U A39G: the self-cleavage turned out to be 0.04. As to A4C U28G G35A C42G, the self-cleavage came out at 0.09. For the variant A6C G35U G36U A39C, the self-cleavage turned out to be 0.04. For G7A C10G A26C G27U U38C the value was 0.01; for G5A A12G U28C A39G, 0.03; for A4U C23G G30C, 0.07. Take C13U G17C G35U: the self-cleavage came out at 0.49. As for G17A C23U G36A, the self-cleavage was determined as 0.07.

For A6U A24C G29C, the self-cleavage turned out to be 0.09.

As for G2C C3A A24U U28C C46U, the self-cleavage is 0.14. With G2U G5A A6G G7C C18U G19U G27A U32C, the self-cleavage is 0.03.

In the case of U9A G22A U28C, the self-cleavage turned out to be 0.13. G5U C31U G33C: the self-cleavage came out at 0.02.
